Reference: the supplement of paper PMC10126150
Values marked as one replicate rest on one cluster of the flow cell; about a third of the high ones do not repeat.

What follows are sequences tested on ATP (assay: switch fluorescence ratio, 500 uM ATP over buffer (Cy3 cluster intensity, sum of 5 cycles each) (fold (ratio)); higher = stronger signal-on switching upon ATP binding; sequences stand for … in TCGTCGGCAGCGTCAGATGTGTATAAGAGACAGTTTTTTTTTTTTTTTTTTTTTTTTT…TC). Conditions: aptamer strand: ATP DNA aptamer (quencher-CACCTGGGGGAGTATTGCGGAGGAAGG + anchor), 100 nM annealed; ATP concentration: 500 uM; one replicate.
Procedure, shortened: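 Five buffer/ATP imaging cycles were run on Cy3-labelled switching-strand clusters on a modified Illumina MiSeq flow-cell, with NaOH stripping and re-annealing between cycles. In each cycle, clusters annealed to 100 nM quencher-labelled ATP aptamer were imaged in selection buffer, then after 15 min with 500 uM ATP at 22 °C. Per cluster, the fluorescence ratio is summed target-cycle over summed buffer-cycle Cy3 intensity, averaged per switch-domain sequence. Only clusters within 100-1000 RFU were kept.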
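Further: ATP exposure 15 min at 22 °C before imaging.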

Row | Sequence | switch fluorescence ratio
1 | TGTCTGGT | 0.976
2 | TGTGAATAAC | 1.03
3 | TGTGACTAGC | 0.985
4 | TGTGAGAACG | 1.04
5 | TGTGAGCTGG | 0.988
6 | TGTGAGGAGT | 1.01
7 | TGTGAGTAGC | 1.03
8 | TGTGCAAGGG | 1.04
9 | TGTGCCAGTG | 1.03
10 | TGTGCGTATT | 1.01
11 | TGTGCGTCG | 0.994
12 | TGTGCTCCCC | 1.89
13 | TGTGCTTTTT | 0.982
14 | TGTGGAGATT | 1.15
15 | TGTGGAGGGG | 0.932
16 | TGTGGATGAT | 0.985
17 | TGTGGCTGGG | 0.996
18 | TGTGGCTGGT | 0.959
19 | TGTGGCTTCA | 1.06
20 | TGTGGGCATA | 0.976
21 | TGTGGGCGG | 0.997
22 | TGTGGTCAT | 0.979
23 | TGTGGTTAAC | 0.993
24 | TGTGTAAAAC | 1.05
25 | TGTGTACGAA | 0.965
26 | TGTGTAGGAG | 0.98

Row | Sequence | switch fluorescence ratio
27 | TGTGTAGTCT | 1.05
28 | TGTGTCCTT | 0.997
29 | TGTGTCGCCA | 1.03
30 | TGTGTCTGAG | 0.998
31 | TGTGTCTGGG | 0.992
32 | TGTGTGGAAG | 0.999
33 | TGTGTGGGAT | 0.994
34 | TGTGTGTCGC | 1.02
35 | TGTTAATGC | 1.09
36 | TGTTACAGCC | 1.01
37 | TGTTACCGGA | 1.09
38 | TGTTAGGAAG | 0.965
39 | TGTTAGGACT | 1.01
40 | TGTTAGTCAC | 1.03
41 | TGTTATTACA | 0.956
42 | TGTTATTTAA | 0.982
43 | TGTTCAAAGC | 0.936
44 | TGTTCATGC | 1.21
45 | TGTTCCGAGC | 1.48
46 | TGTTCCTTAG | 0.979
47 | TGTTCGCCG | 1
48 | TGTTCGGGGT | 0.968
49 | TGTTCTTATG | 0.999
50 | TGTTGACAAG | 0.994
51 | TGTTGACACA | 1.02
52 | TGTTGAGATG | 1

Row | Sequence | switch fluorescence ratio
53 | TGTTGAGTAC | 1.04
54 | TGTTGCTGTT | 1.04
55 | TGTTGGACAA | 1
56 | TGTTGTTAGC | 1.03
57 | TGTTGTTCTA | 1.02
58 | TGTTGTTGTG | 1.01
59 | TGTTTAACTT | 0.992
60 | TGTTTATGTG | 1.05
61 | TGTTTCAATC | 1.04
62 | TGTTTCGTAG | 0.983
63 | TGTTTCTAC | 0.97
64 | TGTTTCTAGA | 0.988
65 | TGTTTCTGTT | 0.989
66 | TGTTTGATAA | 0.97
67 | TGTTTGGT | 0.992
68 | TGTTTGTAGT | 1.01
69 | TGTTTGTGAC | 0.968
70 | TGTTTGTTA | 0.98
71 | TGTTTTCCGC | 1.19
72 | TGTTTTCGGG | 0.996
73 | TTAAAAAGCC | 0.974
74 | TTAAAAGCCC | 0.967
75 | TTAAAAGGCG | 1
76 | TTAAACAAT | 1.04
77 | TTAAACGTAA | 1.16
78 | TTAAACTCCC | 1.03

Row | Sequence | switch fluorescence ratio
79 | TTAAACTGAA | 1.01
80 | TTAAACTGCT | 0.976
81 | TTAAACTTGT | 0.986
82 | TTAAAGAAGC | 1.04
83 | TTAAAGTAAC | 1.06
84 | TTAACAATAT | 1.06
85 | TTAACATCAA | 0.974
86 | TTAACCGGGC | 1.65
87 | TTAACGAGCC | 1.08
88 | TTAACGGAAT | 1.05
89 | TTAACTATGC | 1.01
90 | TTAAGCATCC | 1.18
91 | TTAAGCCAAG | 0.996
92 | TTAAGCGTTC | 0.969
93 | TTAAGCTCTG | 1.01
94 | TTAAGGAACA | 1.03
95 | TTAAGGCTTG | 0.997
96 | TTAATAATGC | 1.29
97 | TTAATACGG | 1.01
98 | TTAATGATAA | 1.01
99 | TTAATGCCAC | 1.01
100 | TTAATGGCGC | 0.976
101 | TTAATGGGGA | 1.06
102 | TTAATGGGTC | 0.97
103 | TTAATTATCC | 0.989
104 | TTAATTCT | 1.01

Row | Sequence | switch fluorescence ratio
105 | TTAATTGCGT | 1.01
106 | TTAATTGTTG | 0.95
107 | TTACAATTAA | 1.05
108 | TTACACACGT | 1.44
109 | TTACACAGG | 1.19
110 | TTACAGAGGT | 1.38
111 | TTACAGGACT | 1.05
112 | TTACATAACT | 1.09
113 | TTACATCATG | 0.962
114 | TTACATGGT | 1.02
115 | TTACATTAAT | 1.03
116 | TTACATTTAC | 1.25
117 | TTACCAAAGT | 1.04
118 | TTACCCACTG | 1.24
119 | TTACCCCAAA | 1.01
120 | TTACCCCCAG | 2.18
121 | TTACCCGGTT | 1.12
122 | TTACCCGTGG | 0.979
123 | TTACCGAATA | 1.03
124 | TTACCGATTT | 1.04
125 | TTACCTATAA | 1.07
126 | TTACCTGTCG | 0.975
127 | TTACCTGTTT | 0.981
128 | TTACGACGGT | 1.24
129 | TTACGAGCGT | 1.01
130 | TTACGAGTGC | 1.01

Row | Sequence | switch fluorescence ratio
131 | TTACGATCGT | 1.01
132 | TTACGCAGAG | 1.28
133 | TTACGCCCCG | 1.02
134 | TTACGCCGA | 1.02
135 | TTACGCTCAA | 1.16
136 | TTACGGCCTC | 1
137 | TTACGGTTG | 1.01
138 | TTACGTAAG | 1.08
139 | TTACGTAGG | 1.05
140 | TTACGTCGGC | 1.06
141 | TTACGTTTCG | 1.03
142 | TTACTAAGAA | 1.04
143 | TTACTAGTCG | 1.05
144 | TTACTAT | 1.03
145 | TTACTATCCG | 0.992
146 | TTACTCGGCT | 1.04
147 | TTACTGTAA | 1.11
148 | TTACTGTCGT | 0.962
149 | TTACTTACAC | 1.33
150 | TTACTTGGT | 0.994
151 | TTACTTT | 1
152 | TTAGAACGTA | 1.05
153 | TTAGAACTT | 0.969
154 | TTAGACCAGT | 1.05
155 | TTAGACTGTT | 0.944
156 | TTAGACTTAG | 1

Row | Sequence | switch fluorescence ratio
157 | TTAGAGGGGC | 1.04
158 | TTAGAGTGTT | 1.01
159 | TTAGATGGT | 1.17
160 | TTAGATGTCT | 1.01
161 | TTAGATTAGG | 0.99
162 | TTAGATTTTG | 1
163 | TTAGCCAGG | 1.12
164 | TTAGCG | 0.917
165 | TTAGCGCGGA | 0.992
166 | TTAGCGGTCT | 1.05
167 | TTAGCTGAGC | 1.03
168 | TTAGCTGCAT | 0.976
169 | TTAGCTGCCT | 1.04
170 | TTAGGCACAG | 0.995
171 | TTAGGCACGA | 1.02
172 | TTAGGCAGTG | 0.954
173 | TTAGGCGGCG | 0.954
174 | TTAGGCTATC | 0.983
175 | TTAGGGAACC | 1.01
176 | TTAGGGATTA | 1.02
177 | TTAGGGCACG | 1.03
178 | TTAGGGGTCA | 1
179 | TTAGGTAGAG | 1.03
180 | TTAGGTCCGT | 0.955
181 | TTAGGTGGTA | 0.955
182 | TTAGGTTTAC | 0.978

Row | Sequence | switch fluorescence ratio
183 | TTAGTATCTA | 1.02
184 | TTAGTATGG | 0.991
185 | TTAGTCAACT | 1.05
186 | TTAGTCACAT | 1.13
187 | TTAGTGCGTT | 0.969
188 | TTAGTGGAAC | 0.969
189 | TTAGTGGAGC | 0.96
190 | TTAGTTGTGT | 0.972
191 | TTAGTTTCTC | 0.954
192 | TTAGTTTGTA | 1.01
193 | TTATAACATG | 0.995
194 | TTATAAGAA | 1.03
195 | TTATAAGTG | 0.982
196 | TTATAAGTTC | 0.969
197 | TTATACAACG | 1.01
198 | TTATACGTGG | 1.07
199 | TTATAGCGG | 1.08
200 | TTATAGGATG | 0.994
201 | TTATAGGGTC | 0.999
